# Measured values published in PubChem BioAssay AID488969 (Vanderbilt High Throughput Screening Facility, 2010).
# Over roughly 110,000 compounds, “z-score” has its median near -0.1; the highest 2% begin near 2. This is one part of the list.
# Biological target: Metabotropic glutamate receptor 8 (Rattus norvegicus) (UniProt P70579)
# Test: mGluR8 Gi/Go-coupled signaling modulation – cell-based, rat, thallium flux, HTS, primary screen (AID 488969)
# Conditions: HEK293 rat mGluR8, GIRK (G protein-gated inwardly rectifying potassium channel) thallium flux, FluoZin2; at 10 µM; stronger effect = higher value; submaximal glutamate (EC20) added with thallium
# Sequence of UniProt P70579 (P70579 whole entry, looked up): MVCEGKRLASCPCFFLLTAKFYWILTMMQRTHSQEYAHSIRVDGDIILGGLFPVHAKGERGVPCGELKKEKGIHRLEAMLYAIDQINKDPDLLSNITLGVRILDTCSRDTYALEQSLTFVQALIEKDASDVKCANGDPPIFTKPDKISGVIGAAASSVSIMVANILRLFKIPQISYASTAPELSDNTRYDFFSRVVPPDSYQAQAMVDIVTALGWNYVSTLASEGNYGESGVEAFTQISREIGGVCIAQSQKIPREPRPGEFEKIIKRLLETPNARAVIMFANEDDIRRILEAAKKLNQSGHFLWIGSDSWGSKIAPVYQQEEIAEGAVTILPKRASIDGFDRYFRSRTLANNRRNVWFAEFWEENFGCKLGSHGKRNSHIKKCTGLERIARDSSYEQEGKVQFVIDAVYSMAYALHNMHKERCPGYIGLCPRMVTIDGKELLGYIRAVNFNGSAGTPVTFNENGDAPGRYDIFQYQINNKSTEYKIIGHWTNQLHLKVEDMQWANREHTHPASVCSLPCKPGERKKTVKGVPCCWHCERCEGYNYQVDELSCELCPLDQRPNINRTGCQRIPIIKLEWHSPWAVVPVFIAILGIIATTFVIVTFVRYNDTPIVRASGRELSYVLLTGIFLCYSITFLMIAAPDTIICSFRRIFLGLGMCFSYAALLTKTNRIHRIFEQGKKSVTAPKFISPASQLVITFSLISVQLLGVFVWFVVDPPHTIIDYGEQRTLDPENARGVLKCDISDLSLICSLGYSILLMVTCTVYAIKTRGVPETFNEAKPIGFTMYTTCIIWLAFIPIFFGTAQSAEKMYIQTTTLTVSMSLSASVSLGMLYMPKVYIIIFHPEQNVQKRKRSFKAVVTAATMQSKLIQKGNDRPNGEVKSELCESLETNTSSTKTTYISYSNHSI
row,Structure (SMILES),z-score
1,CC(=O)Nc1ccc(S(=O)(=O)Nc2nc3n(n2)C(c2ccccc2)CC(=O)N3)cc1 (stereo not drawn),-0.375
2,O=C(Nc1ccccc1C(=O)N1CCOCC1)c1cccnc1,-0.172
3,CCCCCCCCOC(=O)C(NC(=O)CCC(=O)Nc1ccc(S(N)(=O)=O)cc1)C(O)c1ccccc1 (stereo not drawn),0.483
4,CC(=O)Nc1nc(C)c(-c2csc(Nc3cccc([N+](=O)[O-])c3)n2)s1,-0.196
5,Cc1cc(C)c2cc(CN(CCO)Cc3nnnn3Cc3ccccc3)c(=O)[nH]c2c1,-0.277
6,CCN(CC)CCNC(=O)c1ccc2c(c1)ncn2C1CCCCC1,1.66
7,O=c1/c(=C/c2ccc([N+](=O)[O-])cc2)sc2n1CCCN=2,-0.124
8,Cc1cccc(N2CCN(C(=O)c3cn(C)c(=O)c4c3c3ccccc3n4C)CC2)c1C,-0.713
9,O=C(NC1CCCCC1)c1cc2nc3c(c(C(F)(F)F)n2n1)CCCC3,-0.674
10,CCC1SC2=NC(C)=C(C(=O)OCCOC)C(/C=C/c3ccccc3OC)N2C1=O (stereo not drawn),-0.0374
11,CCCCCn1c(=O)[nH]c2cc(C(=O)NCc3ccc4c(c3)OCO4)ccc2c1=O,-0.0767
12,CCN(CC)S(=O)(=O)c1ccc(OC)c(NC(=O)c2cc3c(=O)n4ccccc4nc3s2)c1,-0.178
13,Cc1ccc(CN2CCN(/N=C/c3ccc(C)s3)CC2)c(C)c1,0.0505
14,Cc1nc(Nc2cccc(C(F)(F)F)c2)nc2c1C(=O)CC(C)C2 (stereo not drawn),0.272
15,COC(=O)c1ccccc1NC(=O)CSc1nc(O)cc(=O)n1C1CCCC1,-0.979
16,COc1cc(/C(C)=N/NC(=S)NC(C)C)cc(OC)c1OC,-0.0595
17,O=C(C1COc2ccccc2O1)N1CCc2ccccc2C1 (stereo not drawn),-0.0659
18,O=C(c1cnccn1)N(c1ccccc1)C1(C(=O)NC2CCCC2)CCCCC1,0.00523
19,CC(NC(=O)Cn1nnc(-c2ccncc2)n1)c1ccccc1 (stereo not drawn),0.226
20,O=C(Nc1ccc2c(c1)OCCO2)c1coc2ccccc2c1=O,-0.0224
21,CC(C)=CC(=O)OCC(=O)Nc1ncc(Cl)c(C)c1Cl,-0.248
22,CC(C)OC(=O)C(C(=O)C(F)(F)F)c1cc(NS(=O)(=O)c2ccc3ccccc3c2)c2ccccc2c1O (stereo not drawn),-0.227

row,Structure (SMILES),z-score
1,O=C(Nc1ccncc1)C1c2ccccc2Oc2ccccc21,-0.193
2,COc1ccc(N2CCN(S(C)(=O)=O)CC2)cc1,-0.114
3,Cn1c(SCc2ccc3c(c2)OCO3)nnc1-c1ccccc1,-0.264
4,C=C(C)CSc1ncc(-c2cccc(C(F)(F)F)c2)cn1,0.0396
5,O=C(c1cc2ccccc2o1)c1nc2c(n1O)CCCCC2,-0.353
6,CCOC(=O)c1sc2nc(N3CCOCC3)c3c(c2c1N)CCN(C)C3,0.36
7,COC(=O)C(NC(C)=O)(Nc1ccc(Br)cc1)C(=O)OC,-0.459
8,CCOc1ccc(C(=O)C(CCC(CN(C)C)C(=O)c2ccc(OCC)cc2)CN(C)C)cc1 (stereo not drawn),0.337
9,COc1cccc(C(=O)Oc2cc3c4c(c2)C(C)=CC(C)(C)N4C(=O)C3=O)c1,-0.249
10,CSc1ccccc1NC(=O)COc1ccc(Cl)cc1Cl,-0.15
11,O=c1[nH]nc2n1CCCCC2,0.186
12,CCc1ccc(NC(=S)N(CCCN2CCOCC2)Cc2ccccn2)cc1,-0.551
13,COc1ccc(N(CC(=O)Nc2cccc(OC)c2)S(=O)(=O)c2c(C)nn(C)c2C)cc1,-0.166
14,Cc1ccc(-c2ccc(/C=C3/NC(=O)NC3=O)o2)cc1[N+](=O)[O-],-0.124
15,COc1ccc(CNC(=O)C2CCCN(S(=O)(=O)c3cc(C)ccc3OC)C2)cc1 (stereo not drawn),-0.539
16,CN(C)c1ccc(C=Nc2cnn(C)c2C(N)=O)cc1,-0.379
17,COC(=O)c1ccc2nc(C)c(C)nc2c1,0.386
18,Cc1cccc(C)c1N/C=C/c1onc(C)c1[N+](=O)[O-],0.293
19,CCOC(=O)/C(C#N)=C/c1ccc(N2CCN(C)CC2)cc1,-0.0903
20,COc1ccccc1CNC(=O)CCSCc1cccc(Cl)c1,0.0412
21,Cc1sc2nc(CN3CCN(S(=O)(=O)c4cccc5nonc45)CC3)[nH]c(=O)c2c1C,-0.227
22,CCOC(=O)C(C)Sc1nnc(CNC(=O)c2ccc(OC)cc2)n1C1CCCCC1 (stereo not drawn),-0.0386

row,Structure (SMILES),z-score
1,N#Cc1cc(-c2ccccc2)nc(Oc2ccccc2)n1,0.0354
2,CC(SC1=NCCS1)C(=O)Nc1nnc(-c2ccc(F)cc2)s1 (stereo not drawn),0.0182
3,Cc1ccc(NS(=O)(=O)c2ccc(NC(=O)C(C)Sc3ccc(Cl)cc3)cc2)c(C)c1 (stereo not drawn),-0.237
4,CCN(CC)C(=O)c1ccccc1NS(=O)(=O)c1ccc(C)cc1,0.37
5,NS(=O)(=O)c1ccc(CCNC(=O)CN2CCN(c3ccc(F)cc3)CC2)cc1,0.868
6,CC1(O)c2ccccc2C(=O)N1Cc1ccccc1 (stereo not drawn),1.3
7,CCCc1cc2c(cc1NC(=O)c1ccccc1C)OCO2,0.251
8,CCCCN(C)/C=N/c1c(C#N)cnn1-c1ccc(C)cc1,-0.927
9,Cc1cc(-c2cccs2)c2c(N)c(C(=O)c3ccc4c(c3)OCO4)sc2n1,-1.22
10,CCc1nccn1-c1cc(C(C)(C)C)nc2c(-c3ccc(Cl)cc3)cnn12,-0.156
11,N/C(=N\OC(=O)c1cc(Cl)ccc1Cl)c1cccnc1,0.145
12,Cc1cc(C)c(C)c(Oc2ncnc(N)c2[N+](=O)[O-])c1,-0.0259
13,O=C1c2ccccc2C(Nc2ccc(Cl)cn2)N1c1cccnc1 (stereo not drawn),-1.86
14,c1nc(NCC2(N3CCOCC3)CCCCC2)c2ccsc2n1,0.165
15,O=[N+]([O-])c1nn(-c2ccc3c(c2)OCCO3)n(O)c1=NC1CCCCCC1,-0.0616
16,O=C(NNC(=S)Nc1ccccc1)c1ccncc1,0.161
17,COc1ccc(N2CC(C(=O)Nc3ncccc3C)CC2=O)cc1 (stereo not drawn),-0.0202
18,CC(=O)NC1C(c2nc3ccccc3s2)=C(c2ccccc2)C(=O)N1c1ccc(C)cc1 (stereo not drawn),-0.125
19,N/C(COc1cccc(C(F)(F)F)c1)=N\NC(=O)c1cccnc1Oc1ccccc1,-0.285
20,Clc1ccc(OCCn2cnc3ccccc32)c(Cl)c1,0.126
21,Cc1ccc(NS(=O)(=O)c2cccc(C(=O)NCCc3c[nH]c4ccccc34)c2)c(C)c1,-0.245
22,CCCSc1nnc(CN2CCOCC2)n1C,-0.124

row,Structure (SMILES),z-score
1,O=C(CSc1ccccc1)Nc1ccncc1,-0.309
2,CN(C)C(=O)Cn1c(SCC(=O)NCc2ccc3c(c2)OCO3)nc2ccccc21,-0.00238
3,CCOC(=O)N1CCN(C(=O)COc2ccc(S(=O)(=O)NCC(C)C)cc2C)CC1,0.159
4,COc1ccccc1OCCNC1CCCC1,0.263
5,Cn1c2ccccc2c2c(C(=O)O)cn(C3CCCC3)c(=O)c21,-0.532
6,CCOc1ccc(N(CC)C(=O)CCNC(=O)Cn2ccc3ccccc3c2=O)cc1,-1.4
7,Cc1nnc(SC(C)C(=O)Nc2ncc(Cl)cc2Cl)n1Cc1ccccc1 (stereo not drawn),-0.249
8,O=C(NCC(=O)N(Cc1ccco1)C(C(=O)NC1CCCC1)c1cccnc1)c1ccco1 (stereo not drawn),2.19
9,Cc1ccccc1OCC(=O)Nc1sc(C(=O)Nc2cccc(C)c2C)c(C)c1C#N,-0.341
10,COc1cc(C(=O)OCC(=O)NC2CCCC2)cc(NC(=O)c2ccco2)c1OC,-0.735
11,O=C(COC(=O)c1ccco1)Nc1nc2ccccc2s1,0.111
12,Cc1cccc(NC(=O)/C=C/c2ccc([N+](=O)[O-])s2)c1,0.281
13,Cn1cccc1C(C(=O)NC1CCCCC1)N(C(=O)Cc1cccs1)c1ccc2c(c1)OCO2 (stereo not drawn),-0.182
14,Cc1ccc(C(=O)NCC(=O)Nc2cccc(C(F)(F)F)c2)cc1,-0.208
15,CC(Oc1ccc(Cl)cc1Cl)C(=O)Nc1ccc(S(=O)(=O)Nc2cnc3ccccc3n2)cc1 (stereo not drawn),-0.944
16,COC(=O)c1sccc1NC(=S)Nc1ccc(F)cc1,-0.00972
17,Cc1ccc(NC(=O)c2ccc(OC(F)(F)F)cc2)cc1S(=O)(=O)N(C)C,-0.154
18,COc1cc(CNCC(O)c2ccccc2)ccc1OCc1ccc(Cl)nc1 (stereo not drawn),1.26
19,CCOc1cc2[nH]c(=O)n(CC3CCC(C(=O)NCCCOC)CC3)c(=O)c2cc1OCC (stereo not drawn),-0.875
20,O=C(COC(=O)c1ccccc1Nc1ccc(SC(F)F)cc1)NCc1ccco1,-0.0503
21,O=S1(=O)C=C(SCc2ccccc2)Nc2ccccc21,-0.11
22,N#Cc1ccccc1Sc1ccccc1C(=O)Nc1ccccc1,0.16

row,Structure (SMILES),z-score
1,O=C(/C=C/c1ccccc1)c1ccc2c3c(cccc13)CC2,0.0557
2,CCCc1ccc(-c2cc(C(=O)NN3CCOCC3)c3ccccc3n2)cc1,-0.0753
3,O=C(Nc1sc2c(c1-c1nc3ccccc3[nH]1)CCCC2)C1CCCC1,0.0189
4,CCOC(=O)c1ccc(NS(=O)(=O)c2c(C)n(C)c(=O)n(C)c2=O)cc1,-0.176
5,COc1ccccc1-n1c2nc3ccccc3nc2c2c(=O)n(-c3cc(C)cc(C)c3)cnc21,0.323
6,Cc1ccc(C(=O)N/C(=C\c2ccccc2)C(=O)NCC2CCCO2)cc1 (stereo not drawn),0.0577
7,Cc1ccccc1CS(=O)(=O)Cc1ccc(C(=O)NCc2cccnc2)o1,-0.679
8,COc1ccc(-c2cnnn2-c2ccc(NC(=O)c3ccc(S(=O)(=O)N4CCCCC4)cc3)cc2)cc1OC,-0.942
9,COC(=O)CSc1nc(NC(C)=O)nc(C)c1Br,-0.199
10,COc1cc(C(=O)O)cc(NC(=O)c2cccs2)c1OC,-0.536
11,O=C(NCCN1CCOCC1)C1CCC(CNS(=O)(=O)c2ccc(Cl)cc2)CC1 (stereo not drawn),-0.0938
12,CCN1CNC(=S)N(c2cccc(C)c2C)C1,-1.75
13,CN1C2C=C(N(CCc3c[nH]c4ccccc34)C(=O)c3ccc(Cl)cc3)CC1CC2 (stereo not drawn),0.11
14,N#Cc1ccc(N2CCc3ccccc3C2)c([N+](=O)[O-])c1,0.175
15,Cc1cccc(NCc2nc(-c3ccccc3)no2)c1,-0.266
16,CC(=O)Nc1ccc(NC(=O)C(C)OC(=O)CN(C)S(=O)(=O)c2ccc(Cl)cc2)cc1 (stereo not drawn),-0.0798
17,COc1ccccc1N(CC(=O)Nc1cc(C)on1)S(=O)(=O)c1ccc(Cl)cc1,0.0709
18,Cc1cccc(C)c1NC(=O)COC(=O)CSc1nnc(N)s1,0.178
19,CCOc1cc(/C=N/O)ccc1OCc1ccc(F)cc1,0.601
20,C/C(=C\C(=O)c1ccc(F)cc1)NCc1ccc2c(c1)OCO2,-0.459
